Two molecules from paper PMC11452662 can be followed below.

Several values for one entry are separate records, joined by “and”; a condition that tells them apart may be missing. Identical values can stand only once.

Assay [1] concerns the target T1, recombinant avidin expressed from corn, P02701.
T1 chain: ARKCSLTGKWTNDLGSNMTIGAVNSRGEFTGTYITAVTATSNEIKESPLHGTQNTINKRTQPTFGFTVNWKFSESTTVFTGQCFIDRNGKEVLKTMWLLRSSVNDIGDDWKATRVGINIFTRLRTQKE
The assay can be described thus: native MS; avidin as bought and avidin recovered with biotin-conjugated SNAP beads from a spike in E. coli lysate; 150 mM ammonium acetate; low collisional dissociation settings. The note with it: remark: other sources report otherwise.

The target of assay [2] is T2, natural egg white avidin, P02701.
T2 chain: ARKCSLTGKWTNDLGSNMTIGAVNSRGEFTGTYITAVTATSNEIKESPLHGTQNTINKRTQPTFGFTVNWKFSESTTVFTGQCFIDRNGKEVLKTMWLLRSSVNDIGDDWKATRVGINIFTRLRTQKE
The assay is described as above. Conditions: remark: other sources report otherwise.

B1: recombinant avidin expressed from corn, P02701 25-152 (natural protein)
chain: ARKCSLTGKWTNDLGSNMTIGAVNSRGEFTGTYITAVTATSNEIKESPLHGTQNTINKRTQPTFGFTVNWKFSESTTVFTGQCFIDRNGKEVLKTMWLLRSSVNDIGDDWKATRVGINIFTRLRTQKE
modifications: here or on the partner: glycosylated (heterogeneous); glycosylated (heterogeneous)
Broadly, the stoichiometry N is the number of molecules, sites or subunits per partner or assembly. Regarding B1, in assay [1], the stoichiometry N is 4 and 8.

B2: natural egg white avidin, P02701 25-152 (natural protein)
chain: ARKCSLTGKWTNDLGSNMTIGAVNSRGEFTGTYITAVTATSNEIKESPLHGTQNTINKRTQPTFGFTVNWKFSESTTVFTGQCFIDRNGKEVLKTMWLLRSSVNDIGDDWKATRVGINIFTRLRTQKE
modifications: here or on the partner: glycosylated (heterogeneous); glycosylated (heterogeneous)
As for B2, in assay [2], the stoichiometry N was 4.
